PubChem BioAssay AID540317 (National Center for Advancing Translational Sciences (NCATS), 2011)
The whole screen tested about 390,000 compounds, of which about 2,200 (0.56%) were called active. This list was built around the results that the source calls inconclusive (neither active nor inactive); the mix of calls is not that of the screen. The call rests on the fitted dose curve; in most records, active means well fitted inhibition curve with a large enough effect; inconclusive means small, poorly fitted or top-dose-only effect; inactive means no such curve, though single readings can be large or run the other way. Potencies of inconclusive entries are doubtful fits and often do not repeat.

Molecular target: Chromobox protein homolog 1 (Homo sapiens) (UniProt P83916)
Test: HTS for Inhibitors of HP1-beta Chromodomain Interactions with Methylated Histone Tails; further: nearly all actives have a fitted effect of over 70% in size
Details: AlphaScreen HP1-beta / biotin-H3K9me3 peptide binding; series mostly up to 114 µM; activity change, negative = inhibition: at the top concentration
In short: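 AlphaScreen: HP1-beta (50 nM) preformed 30 min with biotin-H3(1-18)K9me3 peptide (50 nM) in PBS pH 7.4, 0.01% Tween-20. Compound added for 30 min at RT, then streptavidin donor/nickel chelate acceptor beads (10 ug/mL) for 30 min.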
Potency means the concentration at half of the fitted maximal effect; tags describe the fitted curve by direction and shape.

UniProt P83916, sequence (P83916 whole entry, looked up): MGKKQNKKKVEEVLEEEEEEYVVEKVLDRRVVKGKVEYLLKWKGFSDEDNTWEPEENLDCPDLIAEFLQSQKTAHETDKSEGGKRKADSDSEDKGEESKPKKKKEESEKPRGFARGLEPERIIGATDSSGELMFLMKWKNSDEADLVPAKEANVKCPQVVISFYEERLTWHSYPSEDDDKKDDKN

Row | SMILES | Potency | activity change, negative = inhibition
1 | CCOC(=O)CCC(=O)Nc1ccc(S(=O)(=O)N2CCC(C)CC2)cc1 | inconclusive: 28.2 µM [inhibitor, single point] | 
2 | O=C(CCc1ccccc1)NCC(c1ccco1)N1CCc2ccccc21 (stereo not drawn) | inconclusive: 70.8 µM [inhibitor, partial curve] | 
3 | O=C(NC(=S)Nc1cccnc1Cl)c1ccco1 | inconclusive: 12.6 µM [inhibitor, partial curve, poor fit] | 
4 | Oc1cccc(C=NN=C2c3ccccc3-c3ccccc32)c1 | inconclusive: 50.1 µM [inhibitor, partial curve] | 
5 | N#Cc1cccc(NC(=O)CCc2ccc(S(=O)(=O)N3CCOCC3)cc2)c1 |  | inactive: 10%
6 | Cc1ccc(CNC(=O)c2ccc(CNS(=O)(=O)c3ccc4c(c3)C(C)(C)C(=O)N4C)cc2)o1 |  | inactive: 17.6%
7 | COc1cccc(OCC(O)CN2CCN(C)CC2)c1 (stereo not drawn) | inconclusive: 17.8 µM [inhibitor, full curve] | 
8 | COc1cc(/C=N/NC(=O)c2sc(N)c(C#N)c2C)cc(Br)c1O |  | inactive: 28.1%
9 | CN(CC(=O)NCc1ccccc1)Cc1cccc(F)c1 | inconclusive: 15.8 µM [inhibitor, full curve, poor fit] | 
10 | COc1ccccc1-c1nc(C#N)c(N2CCN(c3ccccc3)CC2)o1 | inconclusive: 14.1 µM [inhibitor, partial curve, poor fit] | 
11 | COc1cccc(C(=O)Nc2sc3c(c2C#N)CCN(C(C)=O)C3)c1 | inconclusive: 3.98 µM [inhibitor, full curve] | 
12 | Cc1cc(C)cc(Nc2ncc3c(n2)CC(c2ccco2)CC3=O)c1 (stereo not drawn) | inconclusive: 100 µM [inhibitor, partial curve, poor fit] | 
13 | C/C=C\C=C/C(=O)Nc1cccc(C2=NOC3(C2)C[C@@H](C(N)=O)N(C(=O)[C@H]2CCC(=O)N2)C3)c1 (stereo partly drawn) | inconclusive: 79.4 µM [inhibitor, partial curve, poor fit] | 
14 | CCCN1CCN(c2ncnc3sc(C(=O)Nc4ccc(N(CC)CC)cc4C)c(C)c23)CC1 | inconclusive: 39.8 µM [inhibitor, partial curve] | 
15 | Cc1sc(N)c(C(=O)c2ccccc2Cl)c1C | inconclusive: 56.2 µM [inhibitor, single point] | 
16 | C/C(=N\Nc1nc2c(s1)CCCC2)c1ccccc1 | inconclusive: 44.7 µM [inhibitor, partial curve] | 
17 | CC1CCN(c2oc(-c3ccccc3F)nc2C#N)CC1 | inconclusive: 15.8 µM [inhibitor, full curve] | 
18 | CCOc1cc(/C=C2\C(=O)ON=C2c2ccccc2)cc(Br)c1O | inconclusive: 15.8 µM [inhibitor, partial curve] | 
19 | O=C(c1ccccc1)C1CCN(c2ncccc2[N+](=O)[O-])CC1 | inconclusive: 39.8 µM [inhibitor, partial curve, poor fit] | 
20 | CS(=O)(=O)N1Cc2ccccc2CC1C(=O)O (stereo not drawn) |  | inactive: 8.38%
21 | CCOc1ccc(N=C2NC(=O)S/C2=C\c2ccc(N(C)C)cc2)cc1 | inconclusive: 22.4 µM [inhibitor, single point] | 

Row | SMILES | Potency | activity change, negative = inhibition
22 | NC(=O)NC(=O)C(Nc1ccc(N2CCCCC2)cc1)c1ccccc1 (stereo not drawn) | inconclusive: 56.2 µM [inhibitor, partial curve, poor fit] | 
23 | COc1cccc(-c2nn(-c3ccccc3)cc2/C=C(\C#N)C(=O)NCCCn2ccnc2)c1 | inconclusive: 50.1 µM [inhibitor, partial curve] | 
24 | Cc1ccc(-n2c(N)c(C(=O)NCc3ccco3)sc2=S)cc1 | inconclusive: 35.5 µM [inhibitor, partial curve] | 
25 | O=C(NNC(=S)Nc1cccc(C(F)(F)F)c1)c1ccc(Cl)cc1Cl | inconclusive: 22.4 µM [inhibitor, partial curve] | 
26 | COc1cccc(/C=C2\SC(=S)N(CCCC(=O)N3CCCC3)C2=O)c1 | inconclusive: 31.6 µM [inhibitor, partial curve, poor fit] | 
27 | Cc1ccc2c(c1)C1(C(=O)N2)N2CCCC2C(C(=O)c2ccc3ccccc3c2)C12C(=O)Nc1ccccc12 (stereo not drawn) | inconclusive: 50.1 µM [inhibitor, partial curve, poor fit] | 
28 | Cc1ccc(/C=N/c2sc(Cc3ccccc3)c(C)c2C(N)=O)o1 | inconclusive: 31.6 µM [inhibitor, partial curve, poor fit] | 
29 | COc1ccc(C(=O)Nc2ccc(C(=O)Nc3cccnc3)cc2)cc1 | inconclusive: 79.4 µM [inhibitor, single point] | 
30 | CCN(CCCNC(=O)CC(C(=O)N1CCc2ccccc21)n1ccnc1)c1ccccc1 (stereo not drawn) | inconclusive: 50.1 µM [inhibitor, partial curve] | 
31 | O=C(CSc1nccn1-c1cccc(Cl)c1)Nc1cccc2ccccc12 | inconclusive: 12.6 µM [inhibitor, partial curve] | 
32 | O=C(O)c1cc(N/N=C/c2c(O)ccc3ccccc23)ccc1Cl | inconclusive: 44.7 µM [inhibitor, partial curve] | 
33 | O=C1C=C(c2ccc3cc[nH]c3c2)C[C@@H](c2ccc3c(c2)OCO3)C1 | inconclusive: 28.2 µM [inhibitor, partial curve, poor fit] | 
34 | Cc1ccc2c(c1)c1c(n2CC(O)CNC2CCCC2)CCCC1 (stereo not drawn) | inconclusive: 20 µM [inhibitor, full curve] | 
35 | Oc1ccc(NC(=S)N=Nc2c(O)[nH]c3ccc(Br)cc23)cc1 | inconclusive: 28.2 µM [inhibitor, partial curve] | 
36 | COc1ccc(CC(=O)N2CCN(c3ccccc3)CC2)cc1 |  | inactive: 35.7%
37 | CN(C(=O)COC(=O)Cc1c(F)cccc1Cl)c1c(N)n(Cc2ccccc2)c(=O)[nH]c1=O |  | inactive: 14%
38 | CCN(CC)CCC(c1ccc(N(C)C)cc1)c1c(O)cc(OC)cc1OC (stereo not drawn) | inconclusive: 31.6 µM [inhibitor, full curve, poor fit] | 
39 | Cc1cc2ccccc2c(=O)n1CC(=O)NCC(=O)N1CCN(c2ccccc2)CC1 |  | inactive: 16.7%
40 | CCCn1c(C)cc(-c2csc(N)n2)c1C | inconclusive: 25.1 µM [inhibitor, full curve, poor fit] | 
41 | O=[N+]([O-])c1cnc(N2CCCCC2)c([N+](=O)[O-])c1 | inconclusive: 35.5 µM [inhibitor, single point] | 
42 | CC[C@]12c3[nH]c4cc(CCC(=O)N(C)C)ccc4c3CCN1C(=O)[C@@H](CC(=O)NCCCn1ccnc1)C[C@@H]2C(=O)N1CCN(C(=O)c2ccco2)CC1 | inconclusive: 31.6 µM [inhibitor, single point] | 

Row | SMILES | Potency | activity change, negative = inhibition
43 | COc1ccc(Cc2nn3c(-c4cc(OC)c(OC)c(OC)c4)nnc3s2)cc1 | inconclusive: 12.6 µM [inhibitor, full curve] | 
44 | CCNC(=S)Nc1cc(-c2ccc(Cl)cc2)[nH]n1 | inconclusive: 70.8 µM [inhibitor, single point] | 
45 | CC1(c2ccc(OC(F)F)cc2)NC(=O)N(CC(=O)Nc2ccc(N3CCCCC3)cc2)C1=O (stereo not drawn) | inconclusive: 50.1 µM [inhibitor, partial curve] | 
46 | Cc1ccc2c(nc3s/c(=C/c4cccs4)c(=O)n32)c1C |  | inactive: -13%
47 | CC1CN(C2CCN(C(=O)COc3ccc(Cl)cc3)CC2)CC(C)O1 (stereo not drawn) | inconclusive: 70.8 µM [inhibitor, single point] | 
48 | CS(=O)(=O)c1ccc(N)c(SSc2cc(S(C)(=O)=O)ccc2N)c1 | inconclusive: 2.24 µM [inhibitor, full curve, poor fit] | 
49 | COc1ccc(Cl)cc1N(CC(=O)N1CCCCCC1)S(C)(=O)=O |  | inactive: 34.4%
50 | Cc1csc(NC(=O)c2ccc3c(c2)OCO3)n1 |  | inactive: 18%
51 | COCCCNCc1cc(C)n(-c2cc(S(=O)(=O)N3CCOCC3)ccc2N2CCCC2)c1C | inconclusive: 39.8 µM [inhibitor, partial curve] | 
52 | COc1ccc(/C=N\Nc2ccc([N+](=O)[O-])cc2[N+](=O)[O-])c(C(=O)O)c1OC | inconclusive: 79.4 µM [inhibitor, partial curve] | 
53 | CCOC(=O)[C@H](CCc1ccccc1)N[C@@H](C)C(=O)N1CCC[C@H]1C(=O)O | inactive | 
54 | CCN(CC)CCCC(C)Nc1nccc2c(Cl)cccc12 (stereo not drawn) |  | inactive: 20.9%
55 | CCC(c1nnnn1C1CCCC1)N1CCN(c2cccc(OC)c2)CC1 (stereo not drawn) | inconclusive: 79.4 µM [inhibitor, partial curve, poor fit] | 
56 | CC(=O)C1=C(C)NC2=C(C(=O)c3ccccc32)C1c1ccccc1 (stereo not drawn) | inconclusive: 39.8 µM [inhibitor, partial curve] | 
57 | O=[N+]([O-])c1ccc(OCCCCN2CCc3ccccc3C2)cc1 | inconclusive: 35.5 µM [inhibitor, partial curve] | 
58 | COc1ccc(C(=O)NCCCCNC(=O)c2ccc(OC)c(OC)c2)cc1OC |  | inactive: 18%
59 | CCCN(CCO)Cc1cccc(Br)c1 | inconclusive: 70.8 µM [inhibitor, single point] | 
60 | COc1ccc(CCNC(=O)CSc2nc3scc(-c4ccccc4)c3c(=O)[nH]2)cc1 |  | inactive: 34%
61 | C#CCOCCOCCOCCNc1nc(N2CCN(C(=O)[C@H](CCC(=O)O)n3cc(C(N)Cc4ccc(O)cc4)nn3)CC2)nc(N2CCN(C(=O)[C@H](CCC(=O)O)n3cc(C(N)Cc4ccc(O)cc4)nn3)CC2)n1 (stereo partly drawn) |  | inactive: 31.9%
62 | Clc1ccc(SCCCCn2ccnc2)cc1 | inconclusive: 14.1 µM [inhibitor, full curve, poor fit] | 
63 | O=C(COC(=O)C1CCN(c2ccc(C(F)(F)F)cn2)CC1)Nc1ccc(F)cc1[N+](=O)[O-] | inconclusive: 8.91 µM [inhibitor, full curve] | 
